Measured values taken from patent publication US20250333503A1 (COMPUGEN, published 2025).

Target: T1, human PVRL2-His recombinant protein (human, UniProt Q92692 32-360)
T1 construct: bought; also called His-tagged PVRL2; PVRL2 (CD112)
T1 sequence (looked up): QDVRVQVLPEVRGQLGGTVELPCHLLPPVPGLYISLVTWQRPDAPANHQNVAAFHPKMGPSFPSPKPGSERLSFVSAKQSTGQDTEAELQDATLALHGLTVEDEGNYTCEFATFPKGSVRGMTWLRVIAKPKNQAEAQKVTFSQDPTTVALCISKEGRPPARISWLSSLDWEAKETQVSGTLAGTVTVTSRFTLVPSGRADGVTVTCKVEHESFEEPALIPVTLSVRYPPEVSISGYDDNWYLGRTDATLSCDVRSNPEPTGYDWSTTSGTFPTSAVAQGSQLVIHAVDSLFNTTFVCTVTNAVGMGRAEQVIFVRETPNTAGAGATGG
Assay: ELISA, PVRL2 coated, PVRIGHH in solution, one-site binding fit

Kd: 13 nM
B1: PVRIG hECD-hIg fusion protein (ECD of human PVRIG fused to Fc of human IgG1) (Fc fusion)
chain: TPEVWVQVRMEATELSSFTIRCGFLGSGSISLVTVSWGGPNGAGGTTLAVLHPERGIRQWAPARQARWETQSSISLILEGSGASSPCANTTFCCKFASFPEGSWEACGSLPPSSDPGLSAPPTPAPILRAD[in this place human IgG1 Fc with changes]
modifications: Biotinylated in some assays. The protein acts as a bivalent Fc dimer; one chain is given.
notes: biotinylated in some assays; also called PVRIG H:H; PVRIGHH
